Measured values published in paper PMC4336329 (PLoS ONE, 2015).
Hit rate of the full screen: of about 310,000 compounds, about 14,000 (4.5%) showed an effect of 50% or more. Effects have a minus sign here. Some of the results follow.

target: human ether-à-go-go-related gene (hERG) potassium channel (human, UniProt Q12809); assay: primary screen, population patch clamp on CHO cells stably expressing hERG
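Further: peak tail current of the secondary pulse compared with the same well before compound.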

Chain of human ether-à-go-go-related gene (hERG) potassium channel (Q12809 whole entry, looked up): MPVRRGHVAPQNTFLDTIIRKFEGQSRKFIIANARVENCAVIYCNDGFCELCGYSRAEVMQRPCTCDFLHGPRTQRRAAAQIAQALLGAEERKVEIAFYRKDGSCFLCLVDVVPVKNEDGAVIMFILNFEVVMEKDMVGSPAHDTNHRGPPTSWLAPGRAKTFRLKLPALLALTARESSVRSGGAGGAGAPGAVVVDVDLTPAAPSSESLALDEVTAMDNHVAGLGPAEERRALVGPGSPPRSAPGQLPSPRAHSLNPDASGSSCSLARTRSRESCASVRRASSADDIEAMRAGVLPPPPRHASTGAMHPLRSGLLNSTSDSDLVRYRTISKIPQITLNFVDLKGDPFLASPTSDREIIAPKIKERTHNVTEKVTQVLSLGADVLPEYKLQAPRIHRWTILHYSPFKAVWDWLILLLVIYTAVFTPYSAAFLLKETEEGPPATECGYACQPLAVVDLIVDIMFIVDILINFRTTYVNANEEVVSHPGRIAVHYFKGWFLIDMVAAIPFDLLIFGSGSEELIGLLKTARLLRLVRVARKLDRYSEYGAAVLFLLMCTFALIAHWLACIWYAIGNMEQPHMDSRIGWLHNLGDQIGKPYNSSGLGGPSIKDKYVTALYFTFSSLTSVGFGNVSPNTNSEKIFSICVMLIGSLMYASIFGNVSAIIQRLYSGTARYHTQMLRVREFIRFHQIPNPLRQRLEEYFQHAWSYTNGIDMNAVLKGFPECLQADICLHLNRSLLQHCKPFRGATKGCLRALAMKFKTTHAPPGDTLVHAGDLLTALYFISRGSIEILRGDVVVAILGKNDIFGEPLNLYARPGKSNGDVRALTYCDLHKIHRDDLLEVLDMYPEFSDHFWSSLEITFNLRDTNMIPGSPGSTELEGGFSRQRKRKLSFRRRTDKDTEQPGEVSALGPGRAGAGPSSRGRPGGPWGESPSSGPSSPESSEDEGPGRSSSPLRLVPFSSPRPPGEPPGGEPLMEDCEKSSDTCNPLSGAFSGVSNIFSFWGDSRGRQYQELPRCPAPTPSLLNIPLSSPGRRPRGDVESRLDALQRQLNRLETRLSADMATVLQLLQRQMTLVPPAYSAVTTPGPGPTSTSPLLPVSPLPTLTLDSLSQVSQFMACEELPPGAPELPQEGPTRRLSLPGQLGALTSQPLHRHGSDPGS

Compared with Cc1cc(C)cc(NC(=S)NCc2ccc3c(c2)OCO3)c1, CC(=O)Oc1ccc(C(=O)NCc2ccc3c(c2)OCO3)cc1 is lower in “hERG current change (%, negative = inhibition) at 10uM” value: -8.9% for the first, -23.4% for the second.

Compared with COC(=O)c1ccc(COc2ccccc2/C=C(\C#N)C(=O)Nc2c(C)cc(C)cc2C)cc1, COc1ccccc1CNC(=O)c1ccccc1C(=O)NC(CC(C)C)C(=O)NCc1ccccc1OC (stereo not drawn) is higher in “hERG current change (%, negative = inhibition) at 10uM” value: 8.56% for the first, 10.6% for the second.

Going from Cc1cc(NC(=NC2CC2)c2ccccc2)n(-c2ccccc2)n1 to C/C(=N\NC(=O)CNc1cccc2ccccc12)c1ccccc1, the “hERG current change (%, negative = inhibition) at 10uM” value falls from 32.4% to 10.2%.

Compared with CN1C(c2ccc(F)cc2)=CS/C1=C(\C#N)c1nnc2n1-c1ccccc1SC2, Cc1ccc(NC(=O)CSc2nnc3c(n2)[nH]c2ccccc23)cc1 is higher in “hERG current change (%, negative = inhibition) at 10uM” value: -45.5% for the first, 4.82% for the second.

Compared with CN(C)c1ccc(/C=N/n2c(C3CCCCC3)n[nH]c2=S)cc1, COc1ccc(NC(=O)CNC(=O)C2CCCCC2)cc1 is lower in “hERG current change (%, negative = inhibition) at 10uM” value: 20% for the first, 18.1% for the second.

First: Cc1ccc(NC(=O)CN(C)C(=O)Nc2ccc(C)cc2)cc1
Second: Cc1ccc(S(=O)(=O)CCC(=O)NCCc2ccc(Cl)cc2)cc1
The “hERG current change (%, negative = inhibition) at 10uM” value of the first is higher: 15.5% for the first, -6.35% for the second.

First: CC(=O)/C(CN1CCCCC1)=N\O.Cl
Second: O=C(Cn1cc2c(n1)CCCC2)NCCCN1CCCC1
The “hERG current change (%, negative = inhibition) at 10uM” value of the first is higher: 8.71% for the first, 7.79% for the second.

Going from CC(C)CN(CC(C)C)C(=O)Nc1ccccc1F to CCCSc1nnc(-c2ccccc2NC(=O)CC)c(=O)[nH]1, the “hERG current change (%, negative = inhibition) at 10uM” value rises from 0.473% to 6.99%.

Going from Cc1cccc(-c2c3c(=O)n(C)c(=O)n(C)c3cn2CCO)c1 to COc1ccccc1CCn1cnc2c3cc(C)ccc3n(C)c2c1=O, the “hERG current change (%, negative = inhibition) at 10uM” value falls from 4.56% to -2.79%.

Going from O=C(CN1CCN(Cc2ccccc2)CC1)NNC(=O)c1ccccc1 to O=C(NC1CCCCC1)C(=O)c1c(-c2ccccc2)[nH]c2ccccc12, the “hERG current change (%, negative = inhibition) at 10uM” value rises from -13.5% to -1.09%.

First: O=C(CCN1C(=O)/C(=C/c2ccccc2Cl)SC1=S)NC1C=CS(=O)(=O)C1 (stereo not drawn)
Second: Cc1cc(C)cc(NC(=O)COC(=O)CN=C2NS(=O)(=O)c3ccccc32)c1
The “hERG current change (%, negative = inhibition) at 10uM” value of the first is lower: 12.9% for the first, 15.6% for the second.

First: COc1ccc(NC(=S)N(CCCN2CCCC2)Cc2cccs2)cc1
Second: COCCn1c(SC(C)C(=O)Nc2ccc(N3CCOCC3)cc2)nnc1-c1ccncc1 (stereo not drawn)
The “hERG current change (%, negative = inhibition) at 10uM” value of the first is lower: -48% for the first, -8.54% for the second.

First: O=C(COC(=O)CC1CC2CCC1C2)Nc1cccc(S(=O)(=O)NC2=NCCCCC2)c1 (stereo not drawn)
Second: O=C(COC(=O)c1ccc(S(=O)(=O)N2CCCC2)cc1)Nc1cccc(Cl)c1
The “hERG current change (%, negative = inhibition) at 10uM” value of the first is lower: -20.5% for the first, 1.38% for the second.

Going from Cl.O=S(=O)(c1ccc2nc(COc3ccccc3)[nH]c2c1)N1CCOCC1 to COc1cccc(NC(=O)/C=C/c2ccc(S(=O)(=O)N3CCOCC3)cc2)c1, the “hERG current change (%, negative = inhibition) at 10uM” value falls from -11.5% to -17.6%.

Going from COc1cccc(C(=O)NCCn2ccc3ccccc32)c1 to CCn1c(=O)c2ccccc2n(Cc2cccc([N+](=O)[O-])c2)c1=O, the “hERG current change (%, negative = inhibition) at 10uM” value rises from 6.37% to 15.3%.

Going from CCOc1cc(/C=N/NC(=O)c2ccncc2)cc(Cl)c1OS(C)(=O)=O to CCOc1ccc(S(=O)(=O)N2CCN=C2c2ccccc2)c(C)c1C, the “hERG current change (%, negative = inhibition) at 10uM” value rises from -16.6% to -6.37%.

Going from Cn1cc(/C=N/n2cnc3scc(-c4ccccc4)c3c2=O)c2ccccc21 to O=C1N=c2ccccc2=C1c1sc(NS(=O)(=O)c2ccccc2)nc1O, the “hERG current change (%, negative = inhibition) at 10uM” value rises from 4.68% to 29.1%.

Compared with COc1ccc2c(C)nc(Nc3nc(C)cc(C)n3)nc2c1, C/C(=N\NC(=O)c1ccc(CSc2nc(C)cc(C)n2)cc1)c1ccco1 is lower in “hERG current change (%, negative = inhibition) at 10uM” value: 5.64% for the first, -27.9% for the second.

First: CC1=CC(=C2C(=O)NC(=O)NC2=O)C=C(C(F)(F)F)N1C(C)C
Second: O=C(NC1(C(F)(F)F)N=C(c2ccccc2)NC1=O)c1ccc(Cl)cc1Cl (stereo not drawn)
The “hERG current change (%, negative = inhibition) at 10uM” value of the first is lower: -20.2% for the first, -5.66% for the second.

Compared with CCOC(=O)C1=C(C)NC(=O)NC1c1ccc2c(c1)OCCO2 (stereo not drawn), CCc1ccc(NC2=NCC(=O)N2c2ccc3c(c2)OCCO3)cc1 is lower in “hERG current change (%, negative = inhibition) at 10uM” value: 10.1% for the first, -2.28% for the second.

Compared with CCNC(=O)Cn1cc(C#N)c2ccccc21, CC(C)NC(=O)COC(=O)c1cc(=O)[nH]c2ccccc12 is higher in “hERG current change (%, negative = inhibition) at 10uM” value: 1.8% for the first, 8% for the second.

First: COc1ccc(-n2nnc3c(=O)n(Cc4cccc(C)c4)cnc32)cc1
Second: COc1cnn(-c2ccc(C)cc2)c(=O)c1Br
The “hERG current change (%, negative = inhibition) at 10uM” value of the first is lower: -8.52% for the first, 11.7% for the second.

First: CCOC(=O)c1cc2c(nc1NC(=S)Nc1ccccc1)CC(C)(C)OC2
Second: O=C(Nc1ccccc1)Nc1ccccn1
The “hERG current change (%, negative = inhibition) at 10uM” value of the first is lower: 4.96% for the first, 11.2% for the second.

Compared with COc1cccc(CN(C(=O)CN2C(=O)c3ccccc3S2(=O)=O)C(C(=O)NCC2CCCO2)c2ccco2)c1 (stereo not drawn), O=C(CN(C(=O)CNS(=O)(=O)c1ccccc1)c1ccc2c(c1)OCCO2)NCc1ccco1 is higher in “hERG current change (%, negative = inhibition) at 10uM” value: -38.1% for the first, -6.53% for the second.

Going from Cc1nn2c(N3CCN(CCO)CC3)c3c(nc2c1-c1ccccc1)CCCC3 to Cc1c(C(=O)N2CCCCC2)c(S(=O)(=O)N2CCc3ccccc32)c(C)n1C, the “hERG current change (%, negative = inhibition) at 10uM” value rises from 0.0317% to 7.1%.

Compared with Cc1nn(CCO)c2c1C(=O)CCC2, OCC1CCN(Cc2nc(Cc3ccccc3Cl)no2)CC1 is higher in “hERG current change (%, negative = inhibition) at 10uM” value: 16.3% for the first, 24.4% for the second.

Going from O=C1N(Cc2cccnc2)C[C@@H]2C[C@@H](c3cccc(Oc4ccccc4)c3)N3CCC[C@@]123 to CC1CCCN(c2ccc(C(=O)OCC(=O)N3c4ccccc4Sc4ccccc43)cc2[N+](=O)[O-])C1 (stereo not drawn), the “hERG current change (%, negative = inhibition) at 10uM” value rises from -59.4% to 1.14%.

Going from Cc1cc(C)n2nc(SCC#N)nc2n1 to CSc1nsc(SCC(=O)NCc2ccc(C)cc2)n1, the “hERG current change (%, negative = inhibition) at 10uM” value rises from -7.25% to 10.1%.

Going from CC(NC(=O)c1ccc(N)cc1)c1ccccc1 (stereo not drawn) to O=C(O)CSc1nnc(COc2ccc(Br)cc2)n1-c1ccccc1, the “hERG current change (%, negative = inhibition) at 10uM” value falls from 22.2% to 15%.

Going from COc1cccc(/C=N/NC(=O)CCc2c(C)n[nH]c2C)c1O to Cc1cccc(OCC(=O)N/N=C/c2cc([N+](=O)[O-])ccc2N2CCOCC2)c1, the “hERG current change (%, negative = inhibition) at 10uM” value falls from -2.97% to -9.73%.

First: O=C(COC(=O)/C=C/c1ccc(Br)o1)NC1CCCCC1
Second: COC(=O)C1=C(NC(=O)COc2ccc(Cl)cc2Cl)CCS1
The “hERG current change (%, negative = inhibition) at 10uM” value of the first is lower: 11% for the first, 22.9% for the second.

Going from CC(=O)c1cccc(NC(=O)CCc2nnc3ccc(NCc4ccco4)nn23)c1 to CC1(c2ccccc2)NC(=O)N(CC(=O)NC(=O)NCc2ccco2)C1=O (stereo not drawn), the “hERG current change (%, negative = inhibition) at 10uM” value falls from 18.1% to 13.9%.

First: O=C(CSCc1ccc(Cl)cc1)NCCSCc1ccco1
Second: COc1ccc(CCNC(=O)CCCn2ncn3c(cc4occc43)c2=O)c(OC)c1
The “hERG current change (%, negative = inhibition) at 10uM” value of the first is higher: -1.82% for the first, -12% for the second.

First: CC1(C)CC(=O)C(CC(=O)Nc2ccc(S(N)(=O)=O)cc2)=C(O)C1
Second: CC12CCC(C(=O)Nc3ccc(Cl)cc3)([C@H](Br)C1=O)C2(C)C (stereo partly drawn)
The “hERG current change (%, negative = inhibition) at 10uM” value of the first is higher: -4.32% for the first, -25.6% for the second.

Going from Cc1c(C(=O)N2CCCCC2)sc(NC(=O)C23CC4CC(CC(C4)C2)C3)c1C#N to CC(C)(C)c1cc2ncnc(N3CCCCC3)c2s1, the “hERG current change (%, negative = inhibition) at 10uM” value falls from 16% to -7.25%.

Going from COc1ccc2ccccc2c1C1CC(=O)N2CN(Cc3ccco3)CSC2=C1C#N (stereo not drawn) to COc1ccc(C(=O)C2CCCN(Cc3c[nH]c4ccccc34)C2)c(OC)c1 (stereo not drawn), the “hERG current change (%, negative = inhibition) at 10uM” value falls from 16.3% to -70.8%.

Compared with Cc1ccc(S(=O)(=O)N(C)CC(=O)OCC(=O)N2CC(=O)Nc3ccccc32)cc1, CCc1nnc(NC(=O)C2Cc3ccccc3CN2S(=O)(=O)c2ccc(C)cc2)s1 (stereo not drawn) is higher in “hERG current change (%, negative = inhibition) at 10uM” value: -11.5% for the first, 15.6% for the second.

Going from CN(C)C(=O)N1CCN(C(=O)N(C)C)CC1 to Cc1cc(C)c2c(N=CN(C)C)c(C(=O)N3CCN(c4ncccn4)CC3)sc2n1, the “hERG current change (%, negative = inhibition) at 10uM” value falls from 14.8% to -3.81%.

Compared with C=CCn1c(SCC(=O)c2ccc(O)c(O)c2)nnc1-c1cccc(C)c1, Clc1ccc(Sc2cc(N3CCOCC3)nc(-c3ccccc3)n2)cc1 is higher in “hERG current change (%, negative = inhibition) at 10uM” value: -23.1% for the first, 8.59% for the second.

First: CCOn1c(=O)c(-c2ccc(Cl)cc2)[n+]([O-])c2ccccc21
Second: CNc1ccccc1C(C)(C)c1cc(-c2cccc(OC)c2)no1
The “hERG current change (%, negative = inhibition) at 10uM” value of the first is higher: 16.2% for the first, -24.6% for the second.

First: O=C(Nc1ccccc1Cl)N1C2CCC1CC(O)(c1cccnc1)C2 (stereo not drawn)
Second: O=C(Nc1ccccc1Cl)N1CCN(c2ccc3nncn3n2)CC1
The “hERG current change (%, negative = inhibition) at 10uM” value of the first is higher: -7.5% for the first, -23.2% for the second.

Compared with CN(C)S(=O)(=O)c1cccc(C(=O)NC2CCCc3ccccc32)c1 (stereo not drawn), CCN(CC)C(=O)c1nc[nH]c1C(=O)N(C)Cc1ccccc1 is higher in “hERG current change (%, negative = inhibition) at 10uM” value: -7.65% for the first, 14.1% for the second.

Going from COc1ccc(C=C(C#N)C#N)c(CSc2ccccn2)c1 to Cc1cc(C)cc(OCC(=O)OCC(=O)NCc2cccs2)c1, the “hERG current change (%, negative = inhibition) at 10uM” value rises from 1.19% to 16.4%.

Compared with CC(C)OC(=O)c1ccc(S(N)(=O)=O)o1, C/C(CC(=O)Nc1ccc(Cl)cc1C(F)(F)F)=N\NC(N)=S is higher in “hERG current change (%, negative = inhibition) at 10uM” value: 7.2% for the first, 10.7% for the second.

Going from O=C(Nc1ccc(N2CCOCC2)cc1)C1CC1 to Cc1nc([N+](=O)[O-])cn1-c1ccc(N)cc1, the “hERG current change (%, negative = inhibition) at 10uM” value rises from 6.7% to 10.3%.
